{"source": "PubChem BioAssay AID686978", "about": "(National Center for Advancing Translational Sciences (NCATS), 2013)", "note": "Out of some 420,000 compounds screened, about 64,000 (15%) were called active. This list was built around the results that the source calls inconclusive (neither active nor inactive); the mix of calls is not that of the screen. The call rests on the fitted dose curve; in most records, active means well fitted inhibition curve with a large enough effect; inconclusive means small, poorly fitted or top-dose-only effect; inactive means flat fitted curve, though single readings scatter. No potency is given beside an inconclusive call; the fits are too rough. On the % scale 0 is the no-effect control and ±100 the full control effect; potency means the concentration at half of the fitted maximal effect; tags describe the fitted curve by direction and shape.", "data": [{"assay": "qHTS for Inhibitors of human tyrosyl-DNA phosphodiesterase 1 (TDP1): qHTS in cells in absence of CPT; further: nearly all actives have a fitted effect of over 55% in size", "conditions": "DT40 Tdp1-/- hTDP1 cells, no CPT, ATP luminescence, 48 h; activity change, negative = growth inhibition: at 46.2 µM (top of the series) unless noted", "outline": "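Seeded 400 DT40-hTDP1 cells/well (vehicle DMSO, no 20 nM CPT); pinned compounds; ≥48 hr at 37 °C; CellTiter-Glo luminescence as viability measure.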", "values": [{"smiles": "CC(C)c1ccc(-c2noc(C3CCCN(C(=O)c4ccc(F)cc4F)C3)n2)cc1", "note": "(configuration not stated)", "Potency": "active: 20.6 µM"}, {"smiles": "CCOC(=O)NNC(=O)NCCCCCCNC(=O)NNC(=O)OCC", "activity change, negative = growth inhibition": "inactive: -5.59%"}, {"smiles": "COc1cccc(C(=O)/C=C/Nc2ccc(S(=O)(=O)Nc3ccc(C(C)=O)cc3)cc2)c1", "Potency": "active: 16.4 µM"}, {"smiles": "CC1CCN(c2nc3c(c(=O)[nH]c(=O)n3C)n2Cc2ccccc2Cl)CC1", "Potency": "inconclusive [inhibitor, single point]"}, {"smiles": "O=S(=O)(CCN1CCSCC1)c1ccc(Cl)cc1", "activity change, negative = growth inhibition": "inactive: 7.33%"}, {"smiles": "CC1=C(C(=O)OC(C)C)C(c2ccc(Cl)cc2)n2c(s/c(=C\\c3ccc(OCC(=O)O)cc3)c2=O)=N1", "note": "(configuration not stated)", "Potency": "inconclusive [inhibitor, single point]"}, {"smiles": "Cn1nnc2c(sc3nc(N4CCOCC4)c4c(c32)CCCC4)c1=O", "Potency": "inconclusive [inhibitor, single point]"}, {"smiles": "CCOC(=O)C1=C(C)NC(C)=C(C(=O)OCC)C1c1ccc(Br)o1", "Potency": "active: 23.1 µM"}, {"smiles": "CC(=O)Nc1cccc(-c2csc(NCc3ccccc3)n2)c1", "Potency": "inconclusive [inhibitor, partial curve]"}, {"smiles": "CC1=C(C(=O)OCC2CCCO2)C(c2ccc(Cl)cc2)NC(=O)N1", "note": "(configuration not stated)", "Potency": "inconclusive [inhibitor, partial curve]"}, {"smiles": "Cn1c(=NC(=O)CS(=O)(=O)c2ccc(F)cc2)sc2ccccc21", "Potency": "inconclusive [inhibitor, single point]"}, {"smiles": "CC(C)=CCC[C@H](C)C[C@@H]1CC2=C(C(=O)OC(C)(C)O2)[C@@H](c2ccc(F)cc2)O1", "Potency": "active: 16.4 µM"}, {"smiles": "COc1cc(/C=C/C(=O)c2ccc(C)cc2)ccc1OCC#N", "Potency": "inconclusive [inhibitor, single point]"}, {"smiles": "CC1CC(C)CN(C(=O)CSc2nc3ccsc3c(=O)n2Cc2ccccn2)C1", "note": "(configuration not stated)", "Potency": "inconclusive [inhibitor, single point]"}, {"smiles": "Cn1cc(S(=O)(=O)N2CCc3ccccc32)cc1C(=O)NC(C)(C)C", "Potency": "active: 2.59 µM"}, {"smiles": "CCCn1c(=O)[nH]c2ccccc21", "activity change, negative = growth inhibition": "inactive: 3.1%"}, {"smiles": "O=C(CSc1nncc2ccccc12)N1CCCCC1", "activity change, negative = growth inhibition": "inactive: 3.87%"}, {"smiles": "CCOC(=O)c1c(N)sc(C(O)(C(F)(F)F)C(F)(F)F)c1-c1ccc(F)cc1", "Potency": "inconclusive [inhibitor, single point]"}, {"smiles": "COc1ccc(C(=O)N2CCC[C@@]3(CCN(C(=O)NC(C)C)C3)C2)cc1", "activity change, negative = growth inhibition": "inactive: -2.74%"}, {"smiles": "CC(C)(C)C1CCC(OCC(O)CN2CCN(c3ccccc3)CC2)CC1", "note": "(configuration not stated)", "Potency": "inconclusive [inhibitor, partial curve, poor fit]"}, {"smiles": "CC1Cc2ccccc2N1C(=O)CN1CCc2ccccc2C1", "note": "(configuration not stated)", "Potency": "active: 25.9 µM"}, {"smiles": "CCc1nnc(NC(=O)CN2CCC(O)(c3ccccc3OC)CC2)s1", "activity change, negative = growth inhibition": "inactive: -5.93%"}, {"smiles": "COc1ccc(-c2nnc(-c3ccccc3)o2)cc1OC", "Potency": "inconclusive [inhibitor, partial curve]"}, {"smiles": "Cc1cccc(Cl)c1NNC(=O)Nc1c([N+](=O)[O-])c(C)nn1C", "activity change, negative = growth inhibition": "inactive: -7.13%"}, {"smiles": "CCc1ccc(CN2CCN(S(=O)(=O)Cc3ccccc3)CC2)cc1", "Potency": "inconclusive [inhibitor, partial curve]"}, {"smiles": "O=C(CCN=C1NS(=O)(=O)c2ccccc21)OCc1c(F)c(F)c(F)c(F)c1F", "activity change, negative = growth inhibition": "inactive: 0.21%"}, {"smiles": "CCCCOC(=O)c1ccc(Nc2ncnc3c2cnn3-c2cccc(C)c2)cc1", "activity change, negative = growth inhibition": "inactive: -14.5%"}, {"smiles": "COc1ccccc1Oc1ccc2c(c1)C(=O)N(c1cccc(O)c1)C2=O", "activity change, negative = growth inhibition": "inactive: -14.5%"}, {"smiles": "Cc1cc(C)nc(Sc2ncnc3c2oc2ccccc23)n1", "Potency": "active: 23.1 µM"}, {"smiles": "Cc1ccc(CNC(=O)CN2C(=O)CC(c3ccc(C)c(C)c3)=Nc3ccccc32)cc1", "Potency": "inconclusive [inhibitor, single point]"}, {"smiles": "N#Cc1c(NC(=O)CSc2nc(-c3ccccc3)cc(C(F)(F)F)n2)sc2c1CCC2", "Potency": "inconclusive [inhibitor, partial curve, poor fit]"}, {"smiles": "COc1ccc(-c2nc(S(=O)(=O)c3ccc(C)cc3)c(N3CCCCC3)o2)cc1", "Potency": "inconclusive [inhibitor, single point]"}, {"smiles": "CCCn1c(CN(C)Cc2ccccc2)nc2c1c(=O)n(C)c(=O)n2C", "Potency": "active: 10.3 µM"}, {"smiles": "CC(C)=NN/C(N)=N/C(=S)Nc1ccc(C)cc1", "Potency": "inconclusive [inhibitor, single point]"}, {"smiles": "CC(NC(=O)COC(=O)C1CC2CCCC(C1)C2=O)c1ccccc1", "note": "(configuration not stated)", "activity change, negative = growth inhibition": "inactive: 8.97%"}, {"smiles": "C[C@@H]1CN([C@H](C)CO)C(=O)CCCn2nncc2CO[C@H]1CN(C)S(C)(=O)=O", "activity change, negative = growth inhibition": "inconclusive: -27.9% [inhibitor]"}, {"smiles": "O=S1(=O)CC(O)C(O)CS1", "note": "(configuration not stated)", "Potency": "inconclusive [inhibitor, single point]"}, {"smiles": "Cc1nn(-c2ccccc2)c(Cl)c1C(=O)NCc1cccs1", "Potency": "inconclusive [inhibitor, partial curve, poor fit]"}, {"smiles": "COC(=O)c1ccccc1NC(=O)Nc1ccc(Cl)cn1", "activity change, negative = growth inhibition": "inactive: -8.05%"}, {"smiles": "CC1CCN(C(=O)CCCOc2cc(=O)n(C)c3ccccc23)CC1", "Potency": "inconclusive [inhibitor, single point]"}, {"smiles": "Cc1cc(C(C)(C)C)oc1C(=O)N(CC(=O)NC1CCCC1)c1ccc(F)cc1", "Potency": "active: 16.4 µM"}, {"smiles": "CC1(C)c2ccccc2N2CCC(=O)NC21/C=C/c1ccco1", "note": "(configuration not stated)", "Potency": "inconclusive [inhibitor, partial curve, poor fit]"}, {"smiles": "Cc1cccn2c(CN3CCCC(c4ccccc4)C3)c(C(=O)N3CCOCC3)nc12", "note": "(configuration not stated)", "Potency": "inconclusive [inhibitor, single point]"}, {"smiles": "CCCNC(=O)C1(C)CCCN(Cc2csc3ccccc23)C1", "note": "(configuration not stated)", "Potency": "inconclusive [inhibitor, single point]"}, {"smiles": "CCOc1ccc(S(=O)(=O)NCCc2cn3ccccc3n2)cc1", "Potency": "inconclusive [inhibitor, single point]"}, {"smiles": "CCN1CCN(c2nc3c(c(=O)n(C)c(=O)n3C)n2Cc2cccc3ccccc23)CC1", "activity change, negative = growth inhibition": "inconclusive: -33.1% [inhibitor]"}, {"smiles": "Cc1cccc(CN2CCC(CNc3ncnc4onc(-c5ccc(Cl)cc5)c34)CC2)c1", "Potency": "inconclusive [inhibitor, single point]"}]}]}
